# Laboratory results published in publication PMC3551298 (Arteriosclerosis, thrombosis, and vascular biology, 2012).
# Target: long pentraxin 3 (PTX3), full length (human, UniProt P26022 18-381)
# Experiment: SPR
# Sequence of UniProt P26022 (P26022 18-381): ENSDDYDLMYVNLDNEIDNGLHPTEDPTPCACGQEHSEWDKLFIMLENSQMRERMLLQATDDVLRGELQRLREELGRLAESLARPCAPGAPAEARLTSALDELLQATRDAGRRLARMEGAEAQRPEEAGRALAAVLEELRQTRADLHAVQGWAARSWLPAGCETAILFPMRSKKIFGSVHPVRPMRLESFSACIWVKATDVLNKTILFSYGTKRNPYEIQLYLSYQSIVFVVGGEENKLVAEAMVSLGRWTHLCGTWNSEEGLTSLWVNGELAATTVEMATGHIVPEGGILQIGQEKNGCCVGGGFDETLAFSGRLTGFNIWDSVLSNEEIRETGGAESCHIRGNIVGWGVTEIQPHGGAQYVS
binding result,Binder,further results
binds,TSG-6_(Y94F) mutant (natural protein) not shown,–
–,TSG-6_(Y47F) mutant (natural protein) not shown,fold lower affinity than wildtype TSG-6: ~6 fold
binds,TSG-6E183S mutant (natural protein) not shown,–
–,Link module domain of TSG-6 (Link_TSG6) (domain or fragment) not shown,Kd: 0.648 µM
